The values that follow come from US11434227B2, “Broad spectrum antibacterial activity of novel bisbenzimidazoles targeting topoisomerase IA and the synergistic composition of bisbenzimidazole with efflux pump inhibitors against pathogenic bacteria” (Jawaharlal Nehru University (JNU), priority 2016, dated 2022).

The structures appear in SMILES notation.

Holding throughout (assay): HN12b in combination with efflux pump inhibitors (CB method, FICI)
Assay [1] has as its system Providencia sp. (MTCC 2102). As for the experimental part:
(§1) The fractional inhibitory concentration index (FICI) was calculated for each antibiotic in each combination by using the following formula: FICA+FICB=FICI, where FICA equals the MIC of drug A in combination divided by the MIC of drug A alone and FICB equals the MIC of drug B in combination divided by the MIC of drug B alone. The FICIs were interpreted as follows: FICI of ≤0.5 will correspond to synergy; FICI of >0.5 to ≤1 will correspond to additivity; FICI of >1 to ≤4 will correspond to no interaction (indifference), and FICI of >4 will correspond antagonism.

In another assay the test system is Enterococcus sp. (2105). The following applies: HN12b + PAβN. Here is the method:
as §1

Another assay concerns Providencia sp. (P592). Particulars: HN12b + CCCP. As for the experimental part: as §1
Another assay relates to A. baumannii (MTCC1920). The following applies: HN12b + PAβN. As for the experimental part: as §1
For a further assay, the system named is P. aeruginosa (MTCC1688). Particulars: HN12b + PAβN. As for the experimental part:
as §1

The subject of the next assay is P. aeruginosa (Ps 366). Particulars: HN12b + PAβN. As for the experimental part: as §1
A further assay concerns K. planticola (1164). Particulars: HN12b + PAβN. As for the experimental part:
as §1

A further assay relates to E. coli KK45. The following applies: HN12b + PAβN. Here is the method: as §1
Assay [2] deals with K. planticola (MTCC 2272). The following applies: HN12b + PAβN. As for the experimental part:
as §1

In a further assay the test system is Enterococcus sp. (1121). Particulars: HN12b + PAβN. As for the experimental part: as §1

As for `CCCN1CCN(c2nc3ccc(-c4nc5ccccc5[nH]4)cc3[nH]2)CC1` [HN12b, 2′-(4-propylpiperazine-1-yl)-1H, 3′H-2,5′-bibenzimidazole], the Interpretation result (in assay [1] (HN12b + CCCP); in assay [1] (HN12b + PAβN); in the assay on Enterococcus sp. (2105); in the assay on Providencia sp. (P592); in the assay with A. baumannii (MTCC1920); in the assay on P. aeruginosa (MTCC1688)) was “Additive (FICI of >0.5 to ≤1 will correspond to additivity)” throughout. The Interpretation entry (in the assay with P. aeruginosa (Ps 366); in the assay on K. planticola (1164); in the assay with E. coli KK45; in assay [2]; with Enterococcus sp. (1121)) was “Additive (FICI of >0.5 to ≤1 will correspond to additivity)” in each case.
